Measurements: the supplement of paper PMC11417369
± gives the standard deviation of the averaged measurements. The list shows a part of the results.

system: PfAP2-G AP2 domain (GST-tagged); test: gcPBM binding intensity (ln(normalized median fluorescence intensity)); higher = stronger DNA binding
Summary of the method: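 Each value is the highest Masliner-normalised natural-log median intensity across replicate spots of either orientation of a probe. The probes were primer-extended double-stranded 36-bp intergenic genomic sequences on an Agilent 4 × 180k array, alongside negative controls, exposed for 1 h to GST-tagged P. falciparum DNA-binding domains expressed in E. coli. Bound protein was picked up with Alexa488 anti-GST antibody and scanned at 488 nm.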

| Sequence | gcPBM binding intensity (ln) |
| --- | --- |
| ATTTTTTTATTTTGTGCACACACATAAAAATATATA [CACACA_site762] | 10.7 ± 0.52 |
| GGCATACACAGACACACACACACACCCACATATATA [CACACA_site591] | 10.4 ± 0.33 |
| TAATTATCACATTGCACACACATTTCCTTTTACATT [CACACA_site3443] | 10.14 ± 0.092 |
| AATAAATAAATAAGTACACACATATATATATATATA [CACACA_site284] | 11.5 ± 1.1 |
| AAAAGAATGAAACATAATAAATTACATTAAAATAAT [CACACA_negctrl_site897] | 9.52 ± 0.22 |
| ACATATATTATATAACGTACATAACACTATTTCCTT [XGTACX_site6938] | 11.1 ± 0.66 |
| ATTTTTGTGACTAAGACATGCATAAGAGTAAAGAAA [TGCATGCA_site619] | 10.2 ± 0.18 |
| TATACATATATATACACACACATATATATATATATA [CACACA_site4] | 10.1 ± 0.39 |
| TATATATATATATTCACACATAAATATATGCACCCA [CACACA_site4263] | 10.2 ± 0.49 |
| TTTTTTTTTTGTAATTGTACTTTTTTAATACTTCTA [XGTACX_site4195] | 11.5 ± 1.1 |
| TAAGTCGCCAAAAGGTGTACACATAATGCATTATCA [XGTACX_site8852] | 11.8 ± 0.79 |
| AGTATAGTTATAAATTGTACATATTATTTATTTTAT [XGTACX_site949] | 10.9 ± 0.49 |
| TAAAAATAAAAATAACGTACATACATACTTATATAT [XGTACX_site3745] | 11.1 ± 0.74 |
| TAATTTTTTTAAAACACACAAATATGTAAATATGTA [CACACA_site7769] | 9.99 ± 0.14 |
| TAATATCATTTAGACACACACTCTTACAATCTGTAA [CACACA_site2590] | 9.92 ± 0.057 |
| AATCATTTATGGAAAGCATGCTAAATTAGAGTATAC [TGCATGCA_site172] | 10.03 ± 0.064 |
| ATCTAAACCTTTTGAGCACACATATATATATATATA [CACACA_site8526] | 10.4 ± 0.3 |
| ATGGGGAATAATGAATGTACACAAATAAAAAGTTGG [XGTACX_site4015] | 11.3 ± 0.72 |
| GTTTGAAGAACTATAAATGTATAAATAAAAGTTTAG [TGCATGCA_negctrl_site222] | 9.82 ± 0.12 |

| Sequence | gcPBM binding intensity (ln) |
| --- | --- |
| AAAAAAGTAAAAAAAGCACACACGAAAAAAAATAAA [CACACA_site2233] | 10.03 ± 0.035 |
| ATGGTGCAACATTATGCACACCGTTAAATAACTAAT [CACACA_site9280] | 10.5 ± 0.54 |
| CATGGGCAAATATTCTCACACATAAACATAAACATA [CACACA_site4597] | 10.1 ± 0.28 |
| CACATATAGTTATATGCACACATCTTACACATATAT [CACACA_site3692] | 10.2 ± 0.13 |
| TATCTGTATTTATATACACACATATTCTTTTTACAC [CACACA_site4798] | 10.1 ± 0.14 |
| AAAATCACAAAACACACACACACAAAAAAAAAAAAA [CACACA_site1443] | 9.99 ± 0.47 |
| TACAAAAATGAAAAAAGTACATATCATTTAATATAA [XGTACX_site8066] | 11.4 ± 1 |
| TTTTTTTTTTTTTTTTGTACTCATAAAAATATATTA [XGTACX_site3458] | 11.2 ± 1 |
| CATATATATATATATACACACACACCGTCCGTGTTA [CACACA_site8975] | 10.16 ± 0.085 |
| ATTACATGATATATCACACACACATATAAATATATA [CACACA_site2830] | 10 ± 0.057 |
| GGGAATTATGAAAAAAGTACAGAACAAAAGTAAAAG [XGTACX_site2861] | 11.6 ± 0.81 |
| ATATAGTAAAATTATACACACATGAATTTTCCCATG [CACACA_site1770] | 10 ± 0.014 |
| ATTTGATCAACAAAACGTACACATATTTTCATGTGT [XGTACX_site447] | 11.6 ± 0.87 |
| GAATAAATAAATAAATGTACATATATATTTATTTAT [XGTACX_site243] | 11.1 ± 0.66 |
| GTTCGAAGTATAATTTGTACATATAAAATGGTTCCC [XGTACX_site382] | 10.9 ± 0.55 |
| ATATGTATTTATATATGTTTGAATTTTTTTTTTTTT [CACACA_negctrl_site5] | 9.475 ± 0.078 |
| CTCTTTAAAAATATGGGTACAAAAAAAAAAAAAATA [XGTACX_site6185] | 11.3 ± 0.73 |
| ATTCTTTACTCATAAAATTATATTATATAAACTTTT [XGTACX_negctrl_site554] | 9.79 ± 0.21 |
| TAAAATTTAAAATATACACACAAAAAGTTATTACAA [CACACA_site4080] | 9.965 ± 0.035 |

| Sequence | gcPBM binding intensity (ln) |
| --- | --- |
| AAATTATTATGAAATGGAAAATGCATAAATTGTTTT [XGTACX_negctrl_site206] | 9.83 ± 0.085 |
| ATTAAATAATAATAATGTACGTATTATATTAATACA [XGTACX_site5439] | 11.3 ± 0.95 |
| AAAACAGTGACAACTCGTACTTATATTTTTTTTTGT [XGTACX_site4968] | 10.9 ± 0.43 |
| AGGCCCTATGTTGTTACACACATAGAATGATACATC [CACACA_site1266] | 9.94 ± 0.014 |
| ACATGGTTTACACGTGCATGTGGATGACTGGACATT [TGCATGCA_site640] | 10.4 ± 0.18 |
| TATATTTATTTATATGTATGCATGTCTGTATATGCT [TGCATGCA_site339] | 9.535 ± 0.078 |
| CAAAGATAAAATGATGCACACAAAAGGGTGTAATAT [CACACA_site8499] | 10.25 ± 0.014 |
| AAAGTACAATCATAATCACACGTGTCTATTATATAC [CACACA_site8103] | 10.8 ± 0.59 |
| AAATTACTAATGTGCACACATACTAACGTTTAAATA [CACACA_site3572] | 10.6 ± 0.4 |
| AAAAATGTAAAGTGCGTGCACAAAATATTTGGAAAA | 10.5 ± 0.3 |
| AATACGACAAACAAATGTACAAATAAATATTCGCGT [XGTACX_site6427] | 11 ± 0.63 |
| TGAGAAAATTAAAAGGTGCTCAGAAATTTTATATTA [GTGCAC_site9954] | 9.76 ± 0.16 |
| TTTTCTTTTAATATTTTTAATAATTATATTTTGAAA [XGTACX_negctrl_site495] | 9.39 ± 0.16 |
| CATATATTTTGAAACACACACATATAAAATATACAT [CACACA_site6664] | 10.19 ± 0.014 |
| AAGTATTTCCTAAAATGTACATATAAATAAGTATAT [XGTACX_site1282] | 11.2 ± 0.51 |
| AAATCTTAATAAAGTTGTACATAATTATGTTTAATA [XGTACX_site3348] | 11.3 ± 0.78 |
| TCTTACAAGGAACTAATAAAATTGTAGTTTGTATTT [CACACA_negctrl_site386] | 9.68 ± 0.15 |
| TTAAAATTAAAATACGTACACACCTTATCTTTTTGG [CACACA_site7982] | 11.6 ± 0.81 |
| GAAAAGATTTAAAAATGTACAAAAGAAAAAAAAAAA [XGTACX_site6916] | 10.7 ± 0.38 |
